Counter-ions that a name gives are not always drawn. The list shows a part of the results. Most values come without repeats; read them as rough.
Tested on: OVCAR4
Assay: log2 surviving fraction (library drug vs vehicle, or drug + carboplatin vs carboplatin alone; relative to plate median); ovarian cancer lines: OVCAR4 is platinum-sensitive and Ov4Carbo platinum-resistant; higher = more cell survival
Settings: library drug concentration 10 µM; 7 days; carboplatin co-treatment 5 µM

| Compound | log2 surviving fraction |
| --- | --- |
| CC(C)C(=O)Nc1ccc([N+](=O)[O-])c(C(F)(F)F)c1 [Flutamide (Eulexin)] | -0.304 |
| CC(C)C[C@H](NC(=O)[C@H](CCc1ccccc1)NC(=O)CN1CCOCC1)C(=O)N[C@@H](Cc1ccccc1)C(=O)N[C@@H](CC(C)C)C(=O)[C@@]1(C)CO1 [Carfilzomib (PR-171)] | -7.96 |
| NCCc1c[nH]c2ccc(O)cc12 [Serotonin HCl] | 1.36 |
| CCCc1cc(=O)[nH]c(=S)[nH]1 [Propylthiouracil] | 1.29 |
| Cc1cc(=O)[nH]c(=S)[nH]1 [Methylthiouracil] | 0.177 |
| Cc1cc2c(s1)Nc1ccccc1N=C2N1CCN(C)CC1 [Olanzapine (Zyprexa)] | -0.339 |
| CC1CCc2cc(F)cc3c(=O)c(C(=O)O)cn1c23 (configuration not stated) [Flumequine] | 0.142 |
| CN1CCC(=C2c3ccccc3C=Cc3ccccc32)CC1 [Cyproheptadine HCl (Periactin)] | -1.17 |
| COC(=O)Nc1nc2cc(Sc3ccccc3)ccc2[nH]1 [Fenbendazole (Panacur)] | -5.61 |
| N[C@@H](Cc1ccc(O)c(O)c1)C(=O)O [Levodopa (Sinemet)] | 0.353 |
| CCCN[C@H]1CCc2nc(N)sc2C1 [Pramipexole dihydrochloride monohydrate] | 0.698 |
| NS(=O)(=O)c1cc(Cl)c(Cl)c(S(N)(=O)=O)c1 [Dichlorphenamide (Diclofenamide)] | 1.55 |

Tested on: Ov4Carbo
Assay: as above
Settings: library drug concentration 10 µM; 7 days; carboplatin co-treatment 0 µM

| Compound | log2 surviving fraction |
| --- | --- |
| Cn1ccnc1S [Methimazole (Tapazole, Northyx)] | 0.00306 |
| COC1=C(OC)C(=O)C(CCCCCCCCCCO)=C(C)C1=O [Idebenone] | -0.412 |
| C[C@H]1C[C@H]2[C@@H]3CCC4=CC(=O)C=C[C@]4(C)[C@@]3(F)[C@@H](O)C[C@]2(C)[C@@]1(O)C(=O)CO [Betamethasone (Celestone)] | 1.05 |
| C[C@@H](O)[C@H]1C(=O)N2C(C(=O)OCOC(=O)C(C)(C)C)=C(SC3CN(C4=NCCS4)C3)[C@H](C)[C@H]12 [Tebipenem pivoxil (L-084)] | -0.0252 |
| O=C(Oc1ccccc1C(=O)O)c1ccccc1O [Sasapyrine] | -0.621 |
| COc1ccc(CC(C)NCC(O)c2ccc(O)c(NC=O)c2)cc1 (configuration not stated) [Formoterol hemifumarate] | 0.257 |
| Oc1cc(O)c(Cl)cn1 [Gimeracil] | 0.971 |
| C[C@]12C=CC(=O)C=C1CC[C@H]1[C@@H]3C[C@@H](O)[C@](O)(C(=O)CO)[C@@]3(C)C[C@H](O)[C@@]12F [Triamcinolone (Aristocort)] | 0.188 |
| CN(C)CCOC(C)(c1ccccc1)c1ccccn1 (configuration not stated) [Doxylamine Succinate] | 0.784 |
| CN(C)CCC=C1c2ccccc2CCc2ccccc21 [Amitriptyline HCl] | -2.48 |
| CCOC(=O)N1CCC(=C2c3ccc(Cl)cc3CCc3cccnc32)CC1 [Loratadine] | 0.556 |
| COc1ccc(-c2nc3cc(C4=NNC(=O)CC4C)ccc3[nH]2)cc1 (configuration not stated) [Pimobendan (Vetmedin)] | -3.24 |
| C#C[C@]1(O)CC[C@H]2[C@@H]3CCc4cc(OC)ccc4[C@H]3CC[C@@]21C [Mestranol] | -0.256 |
| OC(c1ccccc1)(c1ccccc1)C1CCNCC1 [Azacyclonol] | -1.58 |
| COc1cc2nc(N3CCN(C(=O)C4CCCO4)CC3)nc(N)c2cc1OC (configuration not stated) [Terazosin HCl (Hytrin)] | 0.152 |
| CCn1cc(C(=O)O)c(=O)c2ccc(C)nc21 [Nalidixic acid (NegGram)] | -0.188 |
| CC=CC1=C(C(=O)O)N2C(=O)[C@@H](NC(=O)[C@H](N)c3ccc(O)cc3)[C@H]2SC1 [Cefprozil hydrate (Cefzil)] | -0.167 |
| CCOc1nc2cccc(C(=O)O)c2n1Cc1ccc(-c2ccccc2-c2noc(=O)[nH]2)cc1 [Azilsartan (TAK-536)] | -0.057 |
| Nc1ccc(O)c(C(=O)O)c1 [Mesalamine (Lialda)] | -0.561 |
| COc1c(N2C[C@@H]3CCCN[C@@H]3C2)c(F)cc2c(=O)c(C(=O)O)cn(C3CC3)c12 [Moxifloxacin hydrochloride] | 0.322 |

| Compound | log2 surviving fraction |
| --- | --- |
| Cc1onc(-c2c(Cl)cccc2Cl)c1C(=O)N[C@@H]1C(=O)N2[C@@H]1SC(C)(C)[C@@H]2C(=O)O [Dicloxacillin Sodium] | 1.72 |
| Cn1cnc([N+](=O)[O-])c1Sc1ncnc2[nH]cnc12 [Azathioprine (Azasan, Imuran)] | -2.45 |
| CCOc1ccc(NC(C)=O)cc1 [Phenacetin] | 0.21 |
| CC(C)(O/N=C(\C(=O)N[C@@H]1C(=O)N2C(C(=O)[O-])=C(C[n+]3ccccc3)CS[C@H]12)c1csc(N)n1)C(=O)O [Ceftazidime Pentahydrate] | 0.0332 |
| NC(CO)(CO)CO [Trometamol] | -0.0295 |
| O=C(NC(Cc1cc(=O)[nH]c2ccccc12)C(=O)O)c1ccc(Cl)cc1 (configuration not stated) [Rebamipide] | 0.472 |
| O=C1NC(=O)C(c2ccccc2)(c2ccccc2)N1 [Phenytoin (Lepitoin)] | 0.245 |
| N[C@@H](Cc1cc(I)c(Oc2cc(I)c(O)c(I)c2)c(I)c1)C(=O)O [L-Thyroxine] | 0.764 |
| CC(C)C(=O)Nc1ccc([N+](=O)[O-])c(C(F)(F)F)c1 [Flutamide (Eulexin)] | -0.206 |
| CC(C)C[C@H](NC(=O)[C@H](CCc1ccccc1)NC(=O)CN1CCOCC1)C(=O)N[C@@H](Cc1ccccc1)C(=O)N[C@@H](CC(C)C)C(=O)[C@@]1(C)CO1 [Carfilzomib (PR-171)] | -7.31 |
| NCCc1c[nH]c2ccc(O)cc12 [Serotonin HCl] | 0.787 |
| CCCc1cc(=O)[nH]c(=S)[nH]1 [Propylthiouracil] | -0.986 |
| Cc1cc(=O)[nH]c(=S)[nH]1 [Methylthiouracil] | 0.0473 |
| Cc1cc2c(s1)Nc1ccccc1N=C2N1CCN(C)CC1 [Olanzapine (Zyprexa)] | 0.256 |
| CC1CCc2cc(F)cc3c(=O)c(C(=O)O)cn1c23 (configuration not stated) [Flumequine] | 0.21 |
| CN1CCC(=C2c3ccccc3C=Cc3ccccc32)CC1 [Cyproheptadine HCl (Periactin)] | -2.12 |
| COC(=O)Nc1nc2cc(Sc3ccccc3)ccc2[nH]1 [Fenbendazole (Panacur)] | -4.91 |
| N[C@@H](Cc1ccc(O)c(O)c1)C(=O)O [Levodopa (Sinemet)] | -0.223 |
| CCCN[C@H]1CCc2nc(N)sc2C1 [Pramipexole dihydrochloride monohydrate] | 0.0786 |
| NS(=O)(=O)c1cc(Cl)c(Cl)c(S(N)(=O)=O)c1 [Dichlorphenamide (Diclofenamide)] | 0.642 |

— the supplement of paper PMC8047034
